{"source": "paper PMC4336329", "about": "(PLoS ONE, 2015)", "note": "Among all 310,000 compounds or so, about 2,200 (0.71%) showed an effect of 50% or more. The effect is printed as a negative number. The list shows a part of the results."}
{"molecular_target": "human ether-à-go-go-related gene (hERG) potassium channel (human, UniProt Q12809)", "sequence (Q12809 whole entry, looked up)": "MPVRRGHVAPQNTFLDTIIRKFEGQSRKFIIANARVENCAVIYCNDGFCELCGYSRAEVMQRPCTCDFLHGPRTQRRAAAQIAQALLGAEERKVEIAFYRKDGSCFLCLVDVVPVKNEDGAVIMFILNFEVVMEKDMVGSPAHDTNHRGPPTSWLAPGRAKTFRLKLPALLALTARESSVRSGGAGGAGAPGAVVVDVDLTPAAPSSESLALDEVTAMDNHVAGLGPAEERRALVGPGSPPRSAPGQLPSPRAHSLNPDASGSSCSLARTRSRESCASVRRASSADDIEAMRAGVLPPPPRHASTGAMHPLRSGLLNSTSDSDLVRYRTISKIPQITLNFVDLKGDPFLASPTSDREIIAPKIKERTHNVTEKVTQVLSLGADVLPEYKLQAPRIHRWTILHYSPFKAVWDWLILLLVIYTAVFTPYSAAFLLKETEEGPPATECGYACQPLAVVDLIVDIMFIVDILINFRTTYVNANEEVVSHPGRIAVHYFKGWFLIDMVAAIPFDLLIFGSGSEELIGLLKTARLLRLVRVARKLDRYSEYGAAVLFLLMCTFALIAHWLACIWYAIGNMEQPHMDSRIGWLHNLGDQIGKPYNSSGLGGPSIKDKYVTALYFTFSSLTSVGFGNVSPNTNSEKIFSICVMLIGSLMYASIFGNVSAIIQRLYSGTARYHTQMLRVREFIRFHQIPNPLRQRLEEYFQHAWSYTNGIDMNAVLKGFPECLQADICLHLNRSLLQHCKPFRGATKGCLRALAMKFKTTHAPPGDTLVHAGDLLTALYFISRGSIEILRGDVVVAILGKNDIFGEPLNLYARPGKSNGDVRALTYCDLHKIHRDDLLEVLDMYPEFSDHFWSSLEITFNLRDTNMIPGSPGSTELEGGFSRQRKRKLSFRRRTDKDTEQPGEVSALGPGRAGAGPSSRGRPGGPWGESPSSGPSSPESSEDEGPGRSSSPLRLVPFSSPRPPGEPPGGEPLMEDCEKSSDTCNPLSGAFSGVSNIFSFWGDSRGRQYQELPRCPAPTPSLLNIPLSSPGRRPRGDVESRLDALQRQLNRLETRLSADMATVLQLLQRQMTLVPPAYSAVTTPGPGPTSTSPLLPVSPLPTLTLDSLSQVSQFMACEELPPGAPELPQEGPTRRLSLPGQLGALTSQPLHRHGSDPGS", "experiment": "primary screen, population patch clamp on CHO cells stably expressing hERG", "units": {"hERG current change (%, negative = inhibition) at 1uM": "%"}}
{"smiles": "CCCn1c(N)c(N(CCOC)C(=O)c2ccc(N3CCCC3=O)cc2)c(=O)[nH]c1=O", "hERG current change (%, negative = inhibition) at 1uM": 8.2}
{"smiles": "O=C(NC1=NCCS1)c1csc2ccccc12", "hERG current change (%, negative = inhibition) at 1uM": 5.26}
{"smiles": "COc1ccc2oc(C(=O)OCC(=O)Nc3cccc(S(=O)(=O)N4CCOCC4)c3)c(C)c2c1", "hERG current change (%, negative = inhibition) at 1uM": -4.87}
{"smiles": "NC(=O)CN1C(=O)C(=O)N(Cc2ccccc2Cl)C1=O", "hERG current change (%, negative = inhibition) at 1uM": 10.1}
{"smiles": "CCSc1nc2ccccc2n1C(=O)c1ccc(S(=O)(=O)N2CCCCCC2)cc1", "hERG current change (%, negative = inhibition) at 1uM": 1.78}
{"smiles": "CCCCCCn1c(CN2CCCCC2C)nc2c1c(=O)n(C)c(=O)n2C", "note": "(stereo not drawn)", "hERG current change (%, negative = inhibition) at 1uM": -28.6}
{"smiles": "CCOCCn1c(N2CCN(c3ccc(OC)cc3)CC2)nc2c1c(=O)[nH]c(=O)n2C", "hERG current change (%, negative = inhibition) at 1uM": 2.36}
{"smiles": "CC(=O)c1ccc(NS(=O)(=O)c2ccc(N)cc2)cc1", "hERG current change (%, negative = inhibition) at 1uM": 8.49}
{"smiles": "Cc1cccc2c1N(C(=O)c1ccco1)C(C)(C)c1ssc(=S)c1-2", "hERG current change (%, negative = inhibition) at 1uM": 14}
{"smiles": "CCCCCC(C(=O)O)C(C)CC(=O)NC1CCCCC1", "note": "(stereo not drawn)", "hERG current change (%, negative = inhibition) at 1uM": 6.06}
{"smiles": "Cc1ccccc1NC(=O)C(C)n1c2ccccc2c2nc(=O)cc(C)n21", "note": "(stereo not drawn)", "hERG current change (%, negative = inhibition) at 1uM": 1.58}
{"smiles": "O=C(CCc1nnc(COc2ccccc2)o1)NCc1ccc(Cl)s1", "hERG current change (%, negative = inhibition) at 1uM": 11.8}
{"smiles": "COc1ccc(NN=Nc2nc3c([nH]2)c(=O)n(C)c(=O)n3C)cc1", "hERG current change (%, negative = inhibition) at 1uM": 7.39}
{"smiles": "CCOC(=O)c1nc(C)sc1-c1ccnn1S(=O)(=O)c1ccc(Cl)cc1Cl", "hERG current change (%, negative = inhibition) at 1uM": 2.77}
{"smiles": "CCO[C@@H]1OC(C(=O)NC2CC2)=C[C@H](c2c[nH]c3ccccc23)[C@H]1CCCO", "hERG current change (%, negative = inhibition) at 1uM": 4.87}
{"smiles": "COc1ccc2nc(NC(=O)CSc3nnc4n3C(C)(C)Cc3ccccc3-4)sc2c1", "hERG current change (%, negative = inhibition) at 1uM": 0.699}
{"smiles": "CC(C)(C)NC(=O)C(c1ccc(O)cc1)N(C(=O)CCC(=O)Nc1nccs1)c1ccccc1F", "note": "(stereo not drawn)", "hERG current change (%, negative = inhibition) at 1uM": 14.7}
{"smiles": "COc1ccc(-c2nnc(OCc3ccccc3)c3ccccc23)cc1", "hERG current change (%, negative = inhibition) at 1uM": 9.38}
{"smiles": "O=[N+]([O-])c1cc([N+](=O)[O-])c(N2CCCCCC2)cc1NCCO", "hERG current change (%, negative = inhibition) at 1uM": 6.14}
{"smiles": "O=C(COC(=O)c1ccc(S(=O)(=O)N2CCCCCC2)cc1)NCc1ccc(Cl)cc1", "hERG current change (%, negative = inhibition) at 1uM": 13}
{"smiles": "NC(=O)CC(NC(=O)Cc1ccc(Cl)cc1)c1ccc(NCc2ccccc2)c([N+](=O)[O-])c1", "note": "(stereo not drawn)", "hERG current change (%, negative = inhibition) at 1uM": -0.137}
{"smiles": "O=C(N/N=C/c1ccc(OC2CSC2)cc1)c1ccc(CN2CCOCC2)cc1", "hERG current change (%, negative = inhibition) at 1uM": -4.48}
{"smiles": "COc1ccc(OC)c(/C=C/C(=O)Oc2ccc(C(C)=O)cc2)c1", "hERG current change (%, negative = inhibition) at 1uM": 13.3}
{"smiles": "CC(C)/C=N/NC(=O)c1cc(Br)ccc1O", "hERG current change (%, negative = inhibition) at 1uM": -1.33}
{"smiles": "CSC(=NC#N)N1CCN(C(=NC#N)SC)CC1", "hERG current change (%, negative = inhibition) at 1uM": 6.57}
{"smiles": "Cc1cccc(C(=O)Nc2ccc(CC(=O)O)cc2)c1", "hERG current change (%, negative = inhibition) at 1uM": -0.972}
{"smiles": "COC(=O)c1ccc(NC(=O)c2ccc3nc(C)sc3c2)cc1", "hERG current change (%, negative = inhibition) at 1uM": 15.4}
{"smiles": "O=C1c2ccccc2C(=O)N1C/C=C/c1ccccc1", "hERG current change (%, negative = inhibition) at 1uM": 10.2}
{"smiles": "Cc1ccc(/C=C/S(=O)(=O)NCC(=O)OCC(=O)NCc2ccccc2)cc1", "hERG current change (%, negative = inhibition) at 1uM": 6.6}
{"smiles": "CN1CCN(C(=O)c2cnn(-c3ccccc3)c2NC(=O)c2ccccc2Cl)CC1", "hERG current change (%, negative = inhibition) at 1uM": 1.45}
{"smiles": "COC(=O)C1=CNC=C(C(=O)OC)C1c1cccc2ccccc12", "hERG current change (%, negative = inhibition) at 1uM": -8.37}
{"smiles": "CCCC[C@@H]1CNC(=O)C(=O)N1CCCc1cc(OC)c(OC)c(OC)c1", "hERG current change (%, negative = inhibition) at 1uM": 15.9}
{"smiles": "O=C(Cc1ccc(F)cc1)NCCc1ccccc1", "hERG current change (%, negative = inhibition) at 1uM": 5.52}
{"smiles": "COc1ccc2c(c1)CC/C(=C/c1ccco1)C2=O", "hERG current change (%, negative = inhibition) at 1uM": 6.18}
{"smiles": "COc1ccc(NC(=S)Nc2cc(C(F)(F)F)ccc2F)cc1", "hERG current change (%, negative = inhibition) at 1uM": 9.87}
{"smiles": "COCC(C)NC(=S)NCCc1ccc(Cl)cc1Cl", "note": "(stereo not drawn)", "hERG current change (%, negative = inhibition) at 1uM": 16}
{"smiles": "Cc1ccc(CCN2CCN=C2N(C)C)cc1", "hERG current change (%, negative = inhibition) at 1uM": 8.55}
{"smiles": "c1ccc(-c2cnnc(-c3ccccn3)n2)cc1", "hERG current change (%, negative = inhibition) at 1uM": 4.98}
{"smiles": "COCC(=O)N(Cc1cc2cc(C)ccc2[nH]c1=O)c1cccc(C)c1C", "hERG current change (%, negative = inhibition) at 1uM": 12.9}
{"smiles": "COc1ccc(NC(=O)CCN2CCC(C)CC2)cc1", "hERG current change (%, negative = inhibition) at 1uM": 5.99}
{"smiles": "Cc1ccc2oc(=O)n(CCC(=O)Nc3ccc(N4CCOCC4)cc3)c2c1", "hERG current change (%, negative = inhibition) at 1uM": 6.76}
{"smiles": "Cc1ccc(S(=O)(=O)N2CCN(S(=O)(=O)c3ccc4c(c3)OCCO4)CC2)cc1", "hERG current change (%, negative = inhibition) at 1uM": 13.6}
{"smiles": "O=Cc1cn(-c2ccccc2)nc1-c1ccc(F)cc1", "hERG current change (%, negative = inhibition) at 1uM": 11.3}
{"smiles": "Cc1nnc(SCC(=O)NC2CCCC2)n1CCc1ccccc1", "hERG current change (%, negative = inhibition) at 1uM": -4.85}
{"smiles": "NNC(=O)C(=O)/C=C1\\NC2(CCCC2)Cc2ccccc21", "hERG current change (%, negative = inhibition) at 1uM": 12.2}
{"smiles": "O=C(Nc1ccc(C(F)(F)F)cc1-c1ccccc1)c1ccccc1", "hERG current change (%, negative = inhibition) at 1uM": 7.34}
{"smiles": "COCC(=O)NNC(=S)Nc1cccc(C)c1C", "hERG current change (%, negative = inhibition) at 1uM": 17}
{"smiles": "Cc1nc([N+](=O)[O-])cn1Cc1cccc([N+](=O)[O-])c1", "hERG current change (%, negative = inhibition) at 1uM": 6.16}
{"smiles": "CC(C)NC(=O)NC(=O)COC(=O)Cc1c(F)cccc1Cl", "hERG current change (%, negative = inhibition) at 1uM": 2.81}
{"smiles": "CCCCNC(=O)c1onc(CSc2ccccc2C)c1C(=O)O", "hERG current change (%, negative = inhibition) at 1uM": 16.7}
{"smiles": "FC(F)(F)c1cc(-c2ccco2)nc(NCc2ccc(Cl)cc2)n1", "hERG current change (%, negative = inhibition) at 1uM": 17.2}
{"smiles": "O=C(CSc1nc2ccc([N+](=O)[O-])cc2[nH]1)NC1CCCCCC1", "hERG current change (%, negative = inhibition) at 1uM": 5.07}
{"smiles": "CCn1c(SCC(=O)O)nnc1-c1cc2c(C)nn(-c3ccccc3)c2s1", "hERG current change (%, negative = inhibition) at 1uM": -8.68}
{"smiles": "O=c1ccc(NS(=O)(=O)c2ccccc2)cn1Cc1ccc(Cl)c(Cl)c1", "hERG current change (%, negative = inhibition) at 1uM": 12.1}
{"smiles": "Cc1ccc(NC(=O)c2ccc(OCC3CCCO3)cc2)c(C)c1", "note": "(stereo not drawn)", "hERG current change (%, negative = inhibition) at 1uM": 4}
{"smiles": "COc1ccc(CCN2C(=S)N(c3ccc(Cl)cc3)C(=O)C2CC(N)=O)cc1OC", "note": "(stereo not drawn)", "hERG current change (%, negative = inhibition) at 1uM": 11.3}
{"smiles": "CC(C)NS(=O)(=O)c1ccc(CCC(=O)N2CCCC2)cc1", "hERG current change (%, negative = inhibition) at 1uM": 15.7}
